In assay [1] the target is T1, γδ T cell receptor on human γδ T cells (human).
T1 construct: whole, on cells; Target is the γδ TCR on a mixed population of human γδ T cells; also called AG000003021 (γδ T cells)
As to the kind of experiment: flow cytometry DRC binding 37 C, human γδ T cells. Here is the method:
(§1) Binding of antibodies to human γδ T cells or SKW cell lines expressing Vγ9/Vδ2, Vγ9/Vδ2 or Vγ5/Vδ2 was carried out by flow cytometry. Briefly, the cells were centrifuged at 300×g for 5 minutes and the pellet was resuspended in 34 ml fresh media (in RPMI+10% FBS). 50 μL of the cells were then plated (44K cells/well) into assay plates. Samples were incubated for one hour at 37° C. in tissue culture (TC) incubator followed by wash steps by adding 100 μl FACS staining buffer. Secondary detention antibodies (A647 conjugated anti-human IgG Fc specific antibody (2 μg/mL) along with AF488 anti mouse CD3, clone OKT3 at 1 ug/mL) were added at 50 μL/well to appropriate wells according to the plate map. After incubating for 60 minutes at 37° C. in the TC incubator, cells were again washed as described above. This is followed by resuspension in 20 μL/well running buffer containing 1:1000 dilution of Sytox blue dead cell stain and the plates were run on iQue Screener.
(§2) Gating and data analysis: Human anti-human Vγ9 antibody (VG9B2 mAb at 10 nM) was used to mark the gating of positive population. […] Cells were also assessed for cell binding of control mAbs by RL1 (A647) Geomeans from the live cell population. […]
Background: A flow cytometer gives signals particle by particle.

Assay [2] has as its target γδ T cell receptor on human γδ T cells (AG000003021) (human). Description: flow cytometry, DRC binding at 37°C on human γδ T cells. Here is the method:
as §1, §2

The source of these data is US20220125947A1 (published 2022).

B1: VG9B371 (antibody, human IgG1, kappa)
heavy: EVQLLESGGGLVKPGGSLRLSCAASRFTLSSYDMNWVRQAPGKGLEWVSSISSSSSYIYYADSVKGRFTISRDNAKNSLYLQMNSLRAEDTAVYYCARDRGVGGTDYYYYGLDVWGQGTTVTVSS[human IgG1 constant region omitted here]
light: [about 100 residues omitted here][about 100 residues omitted here]
notes: IgG1, kappa; specificity column: g/d constant
Take B1: in assay [1], the “Max. Activity” value was 1970 fold over background.

B2: VG9B426 (antibody, human IgG1, kappa)
heavy: EVQLVQSGGGLVKPGGSLRLSCSASGFTFSNYDMNWVRQAPGKGLEWVSSISSSSSYIYYADSVKGRFTISRDNAKNSLYLQMNSLRAEDTAVYHCARDVGVTTDYYYYGMDVWGQGTMVTVSS[human IgG1 constant region omitted here]
light: ETTLTQSPGTLSLSPGDRATLSCRASQSVASSYLAWYQQKPGQSPRLLIYGASSRATGIPDRFSGSGSGTDFTLTISRLEPEDFAVYYCQQYGSSPPYTFGQGTKVEIKRTVAAPSVFIFPPSDEQLKSGTASVVCLLNNFYPREAKVQWKVDNALQSGNSQESVTEQDSKDSTYSLSSTLTLSKADYEKHKVYACEVTHQGLSSPVTKSFNRGEC
notes: IgG1, kappa
With B2, the “Max. Activity” value in assay [2] came to 3210 fold over background.

B3: VG9B399 (antibody, human IgG1, kappa)
heavy: EVQLVESGGGLVKPGGSLRLSCSASGFTFSNYDMNWVRQAPGKGLEWVSSISSSSSYIYYADSVKGRFTISRDNAKNSLYLQMNSLRAEDTAVYHCARDVGVTTDYYYYGMDVWGQGTMVTVSS[human IgG1 constant region omitted here]
light: ETTLTQSPGTLSLSPGDRATLSCRASQSVASSYLAWYQQKPGQSPRLLIYGASSRATGIPDRFSGSGSGTDFTLTISRLEPEDFAVYYCQQYGSSPPYTFGQGTKVDIKRTVAAPSVFIFPPSDEQLKSGTASVVCLLNNFYPREAKVQWKVDNALQSGNSQESVTEQDSKDSTYSLSSTLTLSKADYEKHKVYACEVTHQGLSSPVTKSFNRGEC
notes: as for B1
Regarding B3, the “Max. Activity” value in assay [1] is 2480 fold over background.

B4: VG9B415 (antibody, human IgG1, kappa)
heavy: EVQLVESGGGLVKPGGSLRLSCSASGFTFSNYDMNWVRQAPGKGLEWVSSISSSSSYIYYADSVKGRFTISRDNAKNSLYLQMNSLRAEDTAVYHCARDVGVTTDYYYYGMDVWGQGTTVTVSS[human IgG1 constant region omitted here]
light: ETTLTQSPGTLSLSPGDRATLSCRASQSVASSYLAWYQQKPGQSPRLLIYGASSRATGIPDRFSGSGSGTDFTLTISRLEPEDFAVYYCQQYGSSPPYTFGQGTKLEIKRTVAAPSVFIFPPSDEQLKSGTASVVCLLNNFYPREAKVQWKVDNALQSGNSQESVTEQDSKDSTYSLSSTLTLSKADYEKHKVYACEVTHQGLSSPVTKSFNRGEC
notes: IgG1, kappa
B4: in assay [2], the “Max. Activity” value is 3080 fold over background.
